# This is one part of the list.
# Tested on: HSkMC (human skeletal muscle cells)
# Assay: cytotoxicity call (relative viability < 0.9)
# Conditions: 10 µM
row,Compound,cytotoxicity call
1,CC(C)NC(=O)Nc1ccc2c(c1)C(=O)N([C@H](C)CO)C[C@@H](C)[C@@H](CN(C)C(=O)C1CCCCC1)OCCCC[C@H](C)O2,inactive
2,C[C@H](CO)N1C[C@H](C)[C@@H](CN(C)C(=O)NC2CCCCC2)OCCCC[C@H](C)Oc2ccc(NS(=O)(=O)c3cccs3)cc2C1=O,inactive
3,COc1ccc(NC(=O)N(C)C[C@@H]2Oc3c(NC(=O)c4cc(C)nn4C)cccc3C(=O)N([C@@H](C)CO)C[C@H]2C)cc1,inactive
4,COC(=O)[C@H]1C2C(=O)N(C3CC3)C[C@]23C=C[C@H]1O3 (some centres not stated),inactive
5,C[C@@H]1CN([C@H](C)CO)C(=O)c2cccc(NC(=O)Nc3ccccc3)c2O[C@@H]1CN(C)CC1CCCCC1,inactive
6,C[C@@H]1CCCCO[C@@H](CN(C)S(=O)(=O)c2cccs2)[C@@H](C)CN([C@H](C)CO)C(=O)c2cc(NC(=O)CCC(F)(F)F)ccc2O1,inactive
7,C[C@@H]1CN([C@@H](C)CO)C(=O)Cc2cc(NS(=O)(=O)c3ccc(F)cc3)ccc2O[C@@H]1CN(C)S(=O)(=O)c1ccc(F)cc1,inactive
8,Cc1ccc(S(=O)(=O)N(C)C[C@@H]2Oc3ccc(NC(=O)C4CC4)cc3CC(=O)N([C@@H](C)CO)C[C@H]2C)cc1,inactive
9,CCC(CC)C(=O)N1c2ccccc2Sc2ccccc21,inactive
10,O=C(C[C@@H]1C[C@@H]2c3cc(NC(=O)c4ccc5c(c4)OCO5)ccc3O[C@@H]2[C@@H](CO)O1)NCCc1ccccc1,inactive
11,COc1nc(N)nc2c1ncn2[C@@H]1O[C@H](CO)[C@@H](O)[C@@H]1O,inactive
12,C[C@@H]1CCCCO[C@@H](CN(C)C(=O)c2ccncc2)[C@H](C)CN([C@H](C)CO)C(=O)c2cc(NS(=O)(=O)c3ccc(Cl)cc3)ccc2O1,inactive
13,O=c1[nH]cnc2nc[nH]c12,inactive
14,COc1ccc(C#Cc2ccc([C@@H]3[C@@H](CO)N4CCCCN(S(=O)(=O)c5cn(C)cn5)C[C@H]34)cc2)cc1,active
15,Cc1noc(C)c1S(=O)(=O)Nc1cccc2c1O[C@H](CN(C)Cc1ccc(C(=O)O)cc1)[C@H](C)CN([C@@H](C)CO)C2=O,inactive
16,COc1ccc(NC(=O)N(C)C[C@H]2OCCCC[C@H](C)Oc3ccc(NS(=O)(=O)c4ccccc4)cc3C(=O)N([C@@H](C)CO)C[C@@H]2C)cc1,inactive
17,COc1ccc(S(=O)(=O)Nc2ccc3c(c2)C(=O)N([C@H](C)CO)C[C@H](C)[C@H](CN(C)Cc2ccc(Cl)c(Cl)c2)O3)cc1,inactive
18,O=C1N(Cc2ccccc2)Cc2ccccc2C[C@]12N=C(c1ccc(OCCCO)cc1)O[C@@H]2c1ccccc1,inactive
19,COc1ccc(S(=O)(=O)Nc2ccc3c(c2)C(=O)N([C@H](C)CO)C[C@H](C)[C@@H](CN(C)C(=O)C2CCCCC2)OCCCC[C@H](C)O3)cc1,inactive
20,CO[C@H]1CN(C)C(=O)c2cc(NS(C)(=O)=O)ccc2OC[C@H](C)N(C(=O)C2CCCCC2)C[C@@H]1C,inactive
21,CC(C)N1C[C@@H](CNCc2ccc(Oc3ccccc3)cc2)Oc2c(NC(=O)c3ccncc3)cccc2C1=O,inactive
22,CC(=O)N1Cc2cc(C(=O)NCC(F)(F)F)nc(-c3cccc(-c4cc5ccccc5o4)c3)c2[C@H]1CCO,inactive
23,N[C@@H](Cn1ccc(=O)n(Cc2ccccc2C(=O)O)c1=O)C(=O)O,inactive
24,C[C@H]1CN([C@@H](C)CO)C(=O)c2cc(NC(=O)Cc3ccccc3)ccc2O[C@H]1CN(C)S(=O)(=O)c1cn(C)cn1,inactive
25,C[C@@H]1CN([C@H](C)CO)C(=O)c2cc(NC(=O)Nc3cccc4ccccc34)ccc2O[C@H]1CN(C)C(=O)Nc1ccc(F)cc1,inactive
26,C[C@H]1CCCCO[C@@H](CN(C)Cc2ccc3c(c2)OCO3)[C@@H](C)CN([C@@H](C)CO)C(=O)c2cc(NS(=O)(=O)c3ccccc3)ccc2O1,inactive
27,Cc1nc(CO)co1,inactive

# — the antibiotic and cytotoxicity screens of Wong et al. (2023)
